# According to the RNAGym collection of RNA variant scans (doi:10.1093/nar/gkz1192):
# The source gives no read counts; variants with many changes may rest on few reads.
# B1: CPEB3 Ribozyme (parent)
# chain: UAACAGGGGGCCACAGCAGAAGCGUUCACGUCGCAGCCCCUGUCAGAUUCUGGUGAAUCUGCGAAUUCUGCUGUAUAUCUC
# Variants of: B1
# Test: self-cleavage, relative activity (ratio to wild type); higher = more cleavage; in vitro, sequencing
# Method in brief: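 CPEB3 self-cleaving ribozyme mutant libraries were made by rounds of error-prone PCR, barcoded, and transcribed in vitro with T7 RNA polymerase for 5 hours at 37°C. Cleavage occurred during transcription and a 15 min DNase I step before EDTA stop. RNAs were reverse transcribed with template switching and Illumina-sequenced, with DNA sequencing mapping barcodes to variants. Relative activity is the variant's cleaved/total read fraction divided by wild type's (minimum 5 reads), averaged across three batches.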
row,Variant,self-cleavage
1,UAGCAGGGGGCCACAGAAGAAGCGUUCACGUCGCAGCCCCAUUCAGAUUCUGGUGAAUCUGCGAAUUCUGCUGUACAUCUC [A3G C17A U41A G42U U76C],0.11
2,UAGCAGGGGGCCACAGGAGAAGCGUUCACGUCGCUGCCCCUGUCAGAUUCUGGUGAAUCUGCGAAUUCUGCUGUAUACCUC [A3G C17G A35U U78C],0.08
3,UAGCAGGGGGCCACAGGAGAAGCGUUCACGUCGCAGCCCCUGUCAGAUUCUGGUGAAUCUGAGAAUUCUGCUGUAUAUCUC [A3G C17G C62A],0.28
4,UAGCAGGGGGCCACAGGAGAAGCGCUCACGUCGCAGCCCCUGUCGGAUUAUGGUGAAUCCGCGAAUUCCGCUGUAUAUCUC [A3G C17G U25C A45G C50A U60C U69C],0.38
5,UAGCAGGGGGCCACAGGAGAAGCGUUCACGUCGCAGCCCCUGUCAGAUUCUGGCGAAUCUGCGAAUUCUGCUGUAUAUCUC [A3G C17G U54C],0.17
6,UAGCAGGGGGCCACAGUAGAAGCGUUCACGUCGCGGCCCCUGUCAGAUUCUGGUGAAUCUGCGAAUUCUGCUGUAUAUCUC [A3G C17U A35G],1.19
7,UAGCAGGGGGCCACAGUAGAAGCGUUCACGUCGCAGCCCCUGUCAGAUUCUGGUGAAUCUGCGAGUUCUGCCGUAUAUCUC [A3G C17U A65G U72C],0.28
8,UAGCAGGGGGCCACAGUAGAAGCGCUCACGUCGCAGCCCCUGUCAGGUUCUGGUGAAUCUGCGAAUUCUGCUGUAUAUCUC [A3G C17U U25C A47G],0.43
9,UAGCAGGGGGCCACAGUAGAAGCGUUCACGUCGCAGCCCCUGUCAGAUUCCGGAGAAUCUGCGAAUUCUGCUGUAUAUCUC [A3G C17U U51C U54A],0.76
10,UAGCAGGGGGCCACAGCAGAAGAGUUCGCGUCGCAGCCCCUGUCAGAUUCUGGUGGAUCUGCGAAUCCUGCUGUAUAUUUC [A3G C23A A28G A56G U67C C79U],0.15
11,UAGCAGGGGGCCACAGCAGAAGAGUUCACGUCGCGGCCCCUGUCAGAUUCUGGUGAACCUGCGAAUUCUGCUGUAUAACUC [A3G C23A A35G U58C U78A],0.06
12,UAGCAGGGGGCCACAGCAGAAGAGUUCACGUCGCAGCCCCUGUCAGGUUCUGGUGAAUCUGCGAAUUCUGCUGUGUACCUC [A3G C23A A47G A75G U78C],0.12
13,UAGCAGGGGGCCACAGCAGAAGGGCUCACGUCGCAGCCCCAGCCAGAUUCUGGUGAAUCUGCGAAUUCUGCUGUAUAUCUC [A3G C23G U25C U41A U43C],0.47
14,UAGCAGGGGGCCACAGCAGAAGGGCUCACGUCGCAGCCCCCGUCAGGUUCUGGUGAAUCUGCGAAUUCUGCUGUAUAUCUC [A3G C23G U25C U41C A47G],0.48
15,UAGCAGGGGGCCACAGCAGAAGGGUUCACGUCGCAGCCCCCGUCAGAUUCUGGUGAAUCUGCGAAUUCUGCUGUAUAUCUC [A3G C23G U41C],0.15
16,UAGCAGGGGGCCACAGCAGAAGUGUUCGCGUCGCAGCCCCUGUCAGAUUCUGGUGAAUCUGCAAAUUCUGCUGUAUAUCCC [A3G C23U A28G G63A U80C],0.34
17,UAGCAGGGGGCCACAGCAGAAGUGUUCACGUCGUAGCCCCUGUCAGAUUCUGGUGAAUCUGCGAAUACUGCUGUAUGUCUC [A3G C23U C34U U67A A77G],0.17

row,Variant,self-cleavage
1,UAGCAGGGGGCCACAGCAGAAGUGCUCACGUCGCGGCCCCUGUCAGAUUCUGGUGAAUCUGCGAAUUCUGCUGUAUACCUC [A3G C23U U25C A35G U78C],0.1
2,UAGCAGGGGGCCACAGCAGAAGUGCUCACGUCGCAGCCCCUGACAGGUUCUGGUGAAUCUGCGAAUUCUGCUGAAUAUCUC [A3G C23U U25C U43A A47G U74A],0.73
3,UAGCAGGGGGCCACAGCAGAAGUGUUCACGUCGCAGCCCCAGUCAGAUUCUGGUGAGUCUGCGUAUUCUGCUGUAUAUCUC [A3G C23U U41A A57G A64U],0.12
4,UAGCAGGGGGCCACAGCAGAAGUGUUCACGUCGCAGCCCCCGUCAGAUUCUGGUGGAUCUGCGAAUUCAGCUGUAUAUCUC [A3G C23U U41C A56G U69A],0.22
5,UAGCAGGGGGCCACAGCAGAAGUGUUCACGUCGCAGCCCCUGACAGAUUCUGGUGAGUCUGCGAAUUCUGCUGUAUAUCUC [A3G C23U U43A A57G],0.11
6,UAGCAGGGGGCCACAGCAGAAGUGUUCACGUCGCAGCCCCUGUCAGACUCUGGUGAAUCUGCGAAUUCUGCUGUAUAUCUC [A3G C23U U48C],0.41
7,UAGCAGGGGGCCACAGCAGAAGUGUUCACGUCGCAGCCCCUGUCAGAUUCUGGUGAAACUGCGAAUUCUGCUGUAUAUCUC [A3G C23U U58A],0.12
8,UAGCAGGGGGCCACAGCAGAAGUGUUCACGUCGCAGCCCCUGUCAGAUUCUGGUGAAUCUGCGAAUUCUGCCGUAUAUCCC [A3G C23U U72C U80C],0.18
9,UAGCAGGGGGCCACAGCAGAAGCGUUAACGUCGCAGCCCCUGUCAGAUUCUGGUGAGUCCGCGAAUUCUGCUGUAUAUCUC [A3G C27A A57G U60C],0.06
10,UAGCAGGGGGCCACAGCAGAAGCGUUAACGUCGCAGCCCCUGACAGGUUCUGGUGAAUCUGCGAGUUCUGCUGUAUAACUC [A3G C27A U43A A47G A65G U78A],0.04
11,UAGCAGGGGGCCACAGCAGAAGCGUUAACGUCGCAGCCCCUGUCAGAUUCAGGUGAAUCUGCGAAUUCUGCUGUAAAUCUC [A3G C27A U51A U76A],0.19
12,UAGCAGGGGGCCACAGCAGAAGCGUUUACGACGCAGCCCCUGUCAGAUUCUGGCGAAUCCGCGAGUUCUGCUGUAUAUCUC [A3G C27U U31A U54C U60C A65G],0.16
13,UAGCAGGGGGCCACAGCAGAAGCGUUUACGUCGCAGCCCCAGUCAGAUUCUGGUGAAUCUGCGAAUUCUGCUGUAUAUCUC [A3G C27U U41A],0.39
14,UAGCAGGGGGCCACAGCAGAAGCGUUUACGUCGCAGCCCCAGUCAGAUUCUGGCGAAUCUGCGAAUUCUGCUGUACAUCUC [A3G C27U U41A U54C U76C],0.24
15,UAGCAGGGGGCCACAGCAGAAGCGUUUACGUCGCAGCCCCUGUCAGAUUCUGGUGAAUCCGCGAAUUCUGCUGUAUAUCUC [A3G C27U U60C],0.29
16,UAGCAGGGGGCCACAGCAGAAGCGUUCAGGUCGCAGCCCCUGUCAGAUUCUGGCGAAUCUGCGAAUACUGCUGUAUAACUC [A3G C29G U54C U67A U78A],0.03
17,UAGCAGGGGGCCACAGCAGAAGCGUUCAUGUCGCGGCCCCUGUCUGAUUCUGGUGAAUCUGCGAAUUCUGCUGUAUAUCUC [A3G C29U A35G A45U],0.56
